Measurements reported in PubChem BioAssay AID485294 (National Center for Advancing Translational Sciences (NCATS), 2010).
In all, about 370,000 compounds went through this assay and about 150 (0.041%) were called active. The shares of active, inactive and inconclusive entries below differ from those in the screen. The call rests on the fitted dose curve; in most records, active means well fitted inhibition curve with a large enough effect; inconclusive means small, poorly fitted or top-dose-only effect; inactive means flat fitted curve, though single readings scatter. Potencies of inconclusive entries are left out as doubtful fits.

Target: Beta-lactamase (Escherichia coli (strain K12)) (UniProt P00811)
UniProt P00811, sequence (P00811 whole entry, looked up): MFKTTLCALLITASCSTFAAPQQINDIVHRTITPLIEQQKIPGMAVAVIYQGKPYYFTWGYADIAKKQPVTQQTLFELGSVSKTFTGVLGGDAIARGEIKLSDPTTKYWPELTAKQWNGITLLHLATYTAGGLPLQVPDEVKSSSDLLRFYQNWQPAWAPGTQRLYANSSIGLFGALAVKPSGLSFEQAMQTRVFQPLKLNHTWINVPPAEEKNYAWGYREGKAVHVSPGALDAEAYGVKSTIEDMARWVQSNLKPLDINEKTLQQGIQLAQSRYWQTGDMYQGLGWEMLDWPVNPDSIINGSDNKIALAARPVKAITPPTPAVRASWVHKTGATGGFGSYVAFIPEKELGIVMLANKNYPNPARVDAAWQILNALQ
Assay: qHTS Inhibitors of AmpC Beta-Lactamase (assay with detergent); further: nearly all actives have a fitted effect of over 25% in size;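 on activity change, negative = inhibition: 0% = no-compound wells and -100% = no-enzyme wells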
Details: AmpC hydrolysis of nitrocefin, absorbance 480 nm, 0.01% Triton; activity change, negative = inhibition: at 114 µM (top of the series)
Summary of the method: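 20 mM phosphate pH 7.0 + 0.01% (detergent screen) or 0.0001% Triton X-100; 5.3 nM AmpC reagent; cpd preinc 15 min RT; nitrocefin (800 uM stock) to start; A480 q20 s × 4 min; Activity was normalised to no-enzyme and no-compound control wells.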
Potency means the concentration at half of the fitted maximal effect; tags describe the fitted curve by direction and shape.

SMILES	activity change, negative = inhibition	Potency
O=C1c2ccccc2NC(c2ccc(-c3cccs3)o2)N1O (stereo not drawn)	inactive: 4.42%	–
C=CCOc1nc2c(c(=O)n(C)c(=O)n2C)n1Cc1ccc(Cl)cc1	–	inconclusive [inhibitor, full curve, poor fit]
O=C(CN1C(=O)NC2(CCCCCC2)C1=O)c1ccc(Cl)s1	–	inconclusive [inhibitor, partial curve]
O=C(O)c1ccc(NCc2cccnc2)c([N+](=O)[O-])c1	–	inconclusive [inhibitor, full curve, poor fit]
O=c1c2c3nc4ccccc4nc3n(CC3CCCO3)c2ncn1CCc1ccccc1 (stereo not drawn)	–	inconclusive [inhibitor, partial curve, poor fit]
CC(C)(C)c1ccc(C(=O)NC(=S)NCC2CCCO2)cc1 (stereo not drawn)	inactive: 1.82%	–
O=C(CCc1nc2ccccc2s1)NCc1ccccc1F	–	inconclusive [inhibitor, single point]
COc1ccccc1N1CCN(C(=O)CCC(=O)N2CCN(c3ccc(F)cc3)CC2)CC1	–	inconclusive [inhibitor, full curve]
O=C(Nc1ccc(F)c(Cl)c1)c1cccnc1	inactive: -12.2%	–
S=C(NC1CCCC1)NN1CCOCC1	–	inconclusive [inhibitor, full curve, poor fit]
CCOc1ncccc1C(=O)OCC(=O)Nc1c(C)cc(C)cc1C	–	inconclusive [inhibitor, single point]
C/C(=N\NC(=O)C1CC1)c1ccc(OC(F)F)cc1	–	inconclusive [inhibitor, partial curve]
COc1ccccc1NC(=O)Cn1cc(C(=O)C2CC2)c2ccccc21	–	inconclusive [inhibitor, partial curve, poor fit]
O=C(COC(=O)/C=C/c1ccccc1[N+](=O)[O-])NC(=O)NC1CCCC1	–	inconclusive [inhibitor, partial curve, poor fit]
CCCCNc1nc(Nc2ccc(C)c(Cl)c2)c2cnn(C)c2n1	inactive: -5.49%	–
CC(NC(=O)c1ccccc1[N+](=O)[O-])C1CC2CCC1C2 (stereo not drawn)	–	inconclusive [inhibitor, full curve]
O=C(COc1ccc2ccccc2c1Br)NC(=S)Nc1cccc(CO)c1	–	inconclusive [inhibitor, partial curve, poor fit]
COC(=O)c1ccccc1NC(=O)Cn1c(-c2nonc2N)nc2ccccc21	–	inconclusive [inhibitor, full curve, poor fit]
Cc1c(C(=O)N(C)C)sc(NC(=O)c2cc([N+](=O)[O-])cc([N+](=O)[O-])c2)c1C#N	–	inconclusive [inhibitor, partial curve]
CCc1ccc(N2CC(C(=O)OC)CC2=O)cc1 (stereo not drawn)	inactive: 1.3%	–
CCCCCNC(=O)CCCCCn1c(=O)[nH]c2ccsc2c1=O	inactive: 0.729%	–
O=C(Nc1sc2c(c1C(=O)NCC1CCCO1)CCC2)c1cc(=O)c2ccccc2o1 (stereo not drawn)	inactive: -1.46%	–

SMILES	activity change, negative = inhibition	Potency
C=C1CCC[C@]2(C)C[C@H]3OC(=O)C(CNCCN(C)C)[C@H]3CC12 (stereo partly drawn)	inactive: -4.36%	–
c1ccc(-c2n[nH]c3c2CCC3)cc1	–	inconclusive [inhibitor, single point]
O=C(Cc1cccc2ccccc12)NN1C(=O)/C(=C\c2cccnc2)SC1=S	–	inconclusive [inhibitor, partial curve]
COCCCNc1oc(-c2ccc(COc3ccc(Cl)cc3)o2)nc1C#N	inactive: 0.759%	–
CCOC(=O)c1nnn(-c2nonc2N)c1COc1ccc(F)cc1	inactive: -14.9%	–
O=C(NC1CCCC1)C(c1ccc(F)cc1)N(Cc1ccccc1Cl)C(=O)CCl (stereo not drawn)	inactive: -11.1%	–
CNC(=O)Oc1cccc(-c2cn3cc(OC(=O)NC)ccc3n2)c1	inactive: -11.8%	–
Cc1cc(-c2ccccc2)nc(SCc2ccc(C(=O)O)cc2)n1	–	inconclusive [inhibitor, partial curve, poor fit]
Cc1ccc(NC(=O)CCc2c(C)nc3cc(-c4ccccc4)nn3c2C)cc1F	inactive: 15.4%	–
COc1cccc(-n2cc3c(=O)n(C)c(=O)n(C)c3c2)c1	–	inconclusive [inhibitor, full curve, poor fit]
O=C(CCCN1C(=O)c2ccccc2C1=O)Nc1ccccc1C(=O)N1CCOCC1	–	inconclusive [inhibitor, partial curve, poor fit]
COc1ccc(CCn2c(O)c(C=NCc3cccnc3)c(=O)[nH]c2=O)cc1OC	–	inconclusive [inhibitor, partial curve]
COc1ccc(OCC(=O)NNC(=O)Nc2cccc(Cl)c2)cc1	–	inconclusive [inhibitor, partial curve, poor fit]
Cc1cccc(C(=O)NCc2ccco2)c1	–	inconclusive [inhibitor, full curve, poor fit]
CCOc1ccc(N2C(=O)CS/C2=C(\C(Cl)=C(Cl)Cl)[N+](=O)[O-])cc1	–	inconclusive [inhibitor, full curve, poor fit]
CCOC(=O)c1ccc(NC(=O)CCc2nc(-c3ccc(C)cc3)no2)cc1	–	inconclusive [inhibitor, single point]
Cc1cc(C(=O)N(Cc2nnc(-c3ccc(Cl)cc3)o2)C(C)C)c2ccccc2n1	–	inconclusive [inhibitor, full curve, poor fit]
O=C(Nc1ccccc1F)c1ccc(CNS(=O)(=O)c2cccc(C(F)(F)F)c2)cc1	–	inconclusive [inhibitor, full curve, poor fit]
COC(=O)c1ccc(COC(=O)c2ccc(-n3cnnn3)cc2)o1	–	inconclusive [inhibitor, full curve, poor fit]
CCOC(=O)Cc1csc(NC(=O)CCN2C(=O)c3cccc([N+](=O)[O-])c3C2=O)n1	inactive: -6.61%	–
O=C(CSc1ccc(Cl)cc1)Nc1nnc(-c2cccc([N+](=O)[O-])c2)s1	–	inconclusive [inhibitor, full curve, poor fit]
